This is an account of results in the supplement of paper PMC11417369.

Some of the results follow.

The subject of this assay is PfAP2-HC AP2 domain (GST-tagged). Description: gcPBM binding intensity (ln(normalized median fluorescence intensity)); higher = stronger DNA binding. An outline of the steps:
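For binding intensity, the highest Masliner-normalised natural-log median intensity across replicate spots of either probe orientation was taken. Protein bound to the array was stained with Alexa488 anti-GST antibody and scanned at 488 nm. The protein, GST-tagged P. falciparum DNA-binding domains from E. coli at about 25 μg on average, had been applied for 1 h to an Agilent 4 × 180k array of primer-extended double-stranded 36-bp intergenic genomic probes and negative controls.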
For the sequence “GATATTACGTGTTTGGTATTTTTTGATGTTAATAGG [CACACA_negctrl_site105]”, the “gcPBM binding intensity (ln)” value is 9.75.

Turning to “TATAAAATAATTAAATGTACATAATATATAAAATAT [XGTACX_site6777]”, the “gcPBM binding intensity (ln)” value stood at 9.75. The value for “TTATAAATATTCACTGTGCACTGATGGAATATAAAT [GTGCAC_site9739]” was 9.47; that for “AACAAAGAGAAATAAACACACACAAAATAAAGAAAA [CACACA_site8704]” was 10.7; that for “ATTAATTAAAATAGTTGTACAATCAAAAAAACAAAA [XGTACX_site7660]” was 9.91. Turning to “TTTTTGTATGCTTCCCGACTACATTATGTCGTAAAT [GTGCAC_negctrl_site164]”, the “gcPBM binding intensity (ln)” value worked out at 9.75.

Take “AAATTAAAAATAATTACACACATAGAAAAGTTATAT [CACACA_site7137]”: the “gcPBM binding intensity (ln)” value was found to be 10.1.

For the sequence “TTTTGCAAATATTACTGTACACAATCTCATATAATT [XGTACX_site2584]”, the “gcPBM binding intensity (ln)” value was determined as 9.67. The value for “TTTTCAGAAAGACATGCATACAAAAATAAAAAAGAT [TGCATGCA_site814]” was 9.71; that for “CATTCTACAATAAAAAGTACATATATATATTATATA [XGTACX_site921]” was 9.51; that for TCAAAAAAAATTTTAGTGCATATTTTAGTCAAAACA was 9.39. Regarding “ATTTAAATAATATGTACACACATTTAAAAAGTTATA [CACACA_site7347]”, the “gcPBM binding intensity (ln)” value came to 9.68.

Take “AAATTAAATGATAGAGCATGCGCTAAAAATGAGAAA [TGCATGCA_site937]”: the “gcPBM binding intensity (ln)” value is 10. The value for “ACACATATAATAGTTACATGCAAAAATACTTTTATT [TGCATGCA_site785]” was 10; that for “TTTTTATAACATAAAAGTACATATTTTTAATTTAAT [XGTACX_site4394]” was 9.35; that for “TTTTTTTTATTATAAATATATATATTATAAAACGAA [XGTACX_negctrl_site189]” was 9.29.

Consider “ACCCAAGAGAAAAGAGAAAGAAATATGTGTATATTG [GTGCAC_negctrl_site214]”, for which the “gcPBM binding intensity (ln)” value is 9.48.

Consider “TTATAGTAATAATAATGTACATTTATACACATATAT [XGTACX_site1965]”, for which the “gcPBM binding intensity (ln)” value was found to be 9.77. Consider “ATATATATATATATAACATGCAAAGTTCAAAAAAAA [TGCATGCA_site943]”, for which the “gcPBM binding intensity (ln)” value stood at 9.72. The value for “AAAAAAAACAGACACACACACACATATACATACATA [CACACA_site2665]” was 11.5. The value for “ATTTTATTTAAATACACACACATATATATATTATAT [CACACA_site4607]” was 10; that for “CACAGACACCCATACACACACATACCCATATATATA [CACACA_site5023]” was 10.3. The value for “CTACATATGTATAATATGCACACGTCATTTTCCCCT [CACACA_site2107]” was 9.81; that for “AATTATCAGGAATGATGTACTGAAATAAAAAAAAAA [XGTACX_site3280]” was 9.6.

On to “AAAAAAAAAAAAAAAGCACACATCATATTTTAATTC [CACACA_site9109]”, for which the “gcPBM binding intensity (ln)” value was found to be 9.9. The value for “ACACAAAAATGAAAAATGAAAAGGGTAATATATATA [CACACA_negctrl_site1490]” was 9.82. The value for “AGTATTATTTACTGCGCATGCTATTTATATATATTA [TGCATGCA_site876]” was 9.81; that for “AATAGAAATTATATAAACATAAATGAATAAATAAAT [CACACA_negctrl_site1817]” was 9.82. The value for “ACCATATATTAAAAAGTGCATTAAATATATAAATAT [GTGCAC_site9443]” was 9.6. With “AATTAAATGGATAAATGTACATATGTGAATATATTT [XGTACX_site84]”, the “gcPBM binding intensity (ln)” value came out at 9.83. In the case of “TTACACAAGGATAAAAACATATGTATGATTATATAT [CACACA_negctrl_site654]”, the “gcPBM binding intensity (ln)” value was found to be 9.75.

On to “AAAATTTGAAAAAGGGGTACTTAATAAAAGTTTCAT [XGTACX_site932]”, for which the “gcPBM binding intensity (ln)” value is 9.56. Regarding “ATACTGTATAGTCGCACACAAAAATATAAAATATTT [CACACA_site6004]”, the “gcPBM binding intensity (ln)” value amounted to 9.94. Turning to “ATAATTAACAAATACACACACACACCCAGACAAAAA [CACACA_site4445]”, the “gcPBM binding intensity (ln)” value stood at 10.8.

In the case of “TTTTTAATCATAATATGTACATATAAAAATGGTTTG [XGTACX_site3996]”, the “gcPBM binding intensity (ln)” value worked out at 9.49.

Consider “AATATGTCTTAAAAAAGTACATAAATTTTAACTTCA [XGTACX_site6670]”, for which the “gcPBM binding intensity (ln)” value was determined as 9.38. Consider “TTAAAAGAAAATAGGTGTACACATAATATATACATA [XGTACX_site7697]”, for which the “gcPBM binding intensity (ln)” value was found to be 9.97.

On to “AAACAAATAAAAATATGTACACATTTTTTCATTATG [XGTACX_site5449]”, for which the “gcPBM binding intensity (ln)” value is 9.7. As to “AAAATATTAAATATGTGTACATATAATAGTTCAATG [XGTACX_site5957]”, the “gcPBM binding intensity (ln)” value is 9.78. In the case of “AACAATTAGAATAACGCATGCATTTATAATATAGAA [TGCATGCA_site595]”, the “gcPBM binding intensity (ln)” value is 9.8. The value for “TGTGTATATATAAATACACACCAAATGTTAATATAT [CACACA_site8501]” was 9.76; that for “TAATAAATCAAATGCACACACACAAAAAAAAAAAAA [CACACA_site161]” was 10.3; that for “TTTTTATTTTTTTATGCATGTGATGAAACGTGCCTA [TGCATGCA_site141]” was 9.7. For “AAAAGGAGCAAATACAAAAAAATGAACAAAAAAAAA [CACACA_negctrl_site716]”, the “gcPBM binding intensity (ln)” value turned out to be 9.66.
